PubChem BioAssay AID485294 (National Center for Advancing Translational Sciences (NCATS), 2010)
Among all 370,000 compounds or so, about 150 (0.041%) were called active. This list was built around the results that the source calls inconclusive (neither active nor inactive); the mix of calls is not that of the screen. Calls come from the whole dose curve; as a rule, active = well fitted inhibition curve with a large enough effect; inconclusive = small, poorly fitted or top-dose-only effect; inactive = flat fitted curve, though single readings scatter. No potency is given beside an inconclusive call; the fits are too rough.

target: Beta-lactamase (Escherichia coli (strain K12)) (UniProt P00811); test: qHTS Inhibitors of AmpC Beta-Lactamase (assay with detergent); conditions: AmpC hydrolysis of nitrocefin, absorbance 480 nm, 0.01% Triton; series mostly up to 114 µM; note: nearly all actives have a fitted effect of over 25% in size
Outline: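 20 mM phosphate pH 7.0 + 0.01% (detergent screen) or 0.0001% Triton X-100; 5.3 nM AmpC reagent; cpd preinc 15 min RT; nitrocefin (800 uM stock) to start; A480 q20 s × 4 min; Activity was normalised to no-enzyme and no-compound control wells.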
Potency is the fitted concentration of half-maximal effect; tags give direction and shape of the fitted curve.

Chain of UniProt P00811 (P00811 whole entry, looked up): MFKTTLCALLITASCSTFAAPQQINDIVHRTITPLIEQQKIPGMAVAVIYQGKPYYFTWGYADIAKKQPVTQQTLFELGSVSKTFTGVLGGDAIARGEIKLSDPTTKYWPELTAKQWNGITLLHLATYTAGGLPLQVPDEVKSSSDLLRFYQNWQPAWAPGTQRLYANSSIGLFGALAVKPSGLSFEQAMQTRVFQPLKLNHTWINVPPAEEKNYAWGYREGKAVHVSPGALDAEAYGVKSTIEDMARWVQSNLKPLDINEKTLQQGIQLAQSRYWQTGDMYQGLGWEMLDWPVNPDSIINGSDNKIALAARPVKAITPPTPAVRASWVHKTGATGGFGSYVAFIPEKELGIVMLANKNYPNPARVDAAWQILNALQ

Row | Structure (SMILES) | Potency
1 | COc1cccc(CN2CCCN(CC(=O)Nc3ccc4c(c3)OCCO4)S2(=O)=O)c1 | inactive
2 | CC(C)(C)C(=O)Nc1ccc(S(=O)(=O)N2CCC(c3nc4ccccc4[nH]3)CC2)cc1 | inactive
3 | O=c1c2ccccc2nc(SCc2cccc(F)c2)n1Cc1ccco1 | inconclusive [inhibitor, full curve]
4 | O=S(=O)(c1ccc(Oc2ccc(Br)cc2F)nc1)N1CCCCC1 | inconclusive [inhibitor, full curve, poor fit]
5 | Cc1ccc(-c2nnc(SCC(=O)c3ccc(Cl)cc3)n2-c2ccccc2)cc1 | inactive
6 | Cn1c(CSc2nc3ccccc3s2)nnc1SCC(=O)NCCCN1CCOCC1 | inactive
7 | O=C(NCC1CCCO1)c1cc2ccccc2[nH]1 (centres undefined) | inactive
8 | CCOc1ccccc1/C=C/c1onc(C)c1S(=O)(=O)N1CCC(C(=O)NC)CC1 | inconclusive [inhibitor, partial curve, poor fit]
9 | Cc1ccc(C(=O)NC2CCCc3ccccc32)cc1[N+](=O)[O-] (centres undefined) | inconclusive [inhibitor, partial curve, poor fit]
10 | O=C(O)CCCC(=O)OCCCCc1cccs1 | inconclusive [inhibitor, partial curve, poor fit]
11 | CCOc1ccc2c(c1)C(N(CCN1CCOCC1)C(=O)Nc1ccc(OC)cc1OC)CC(C)(C)O2 (centres undefined) | inconclusive [inhibitor, single point]
12 | O=C(Nc1cccc(-c2nc3ncccc3o2)c1)c1sc2ccccc2c1Cl | inconclusive [inhibitor, full curve, poor fit]
13 | CCOC(=O)N1CCN(C(=O)c2cc3c(s2)-c2ccccc2OC3)CC1 | inconclusive [inhibitor, single point]
14 | COc1cc(/C=C/C(=O)OCC(=O)NC(=O)NC(C)C)cc(S(=O)(=O)N2CCc3ccccc32)c1OC | inconclusive [inhibitor, full curve, poor fit]
15 | CCOc1ccc(S(=O)(=O)N2CCN(C(=O)C3CCC3)CC2)cc1 | inconclusive [inhibitor, full curve, poor fit]
16 | CCC(C)(C)n1nnnc1CN1CCSCC1 | inconclusive [inhibitor, full curve, poor fit]
17 | CCc1[nH]nc2c1C(C(C)C)C(C#N)=C(N)O2 (centres undefined) | inactive
18 | COCCNc1oc(-c2ccccc2Cl)nc1C#N | inconclusive [inhibitor, full curve, poor fit]
19 | COc1cc(NC(=O)CN(c2ccc(C)cc2)S(=O)(=O)c2c(C)nn(C)c2C)cc(OC)c1 | inconclusive [inhibitor, single point]
20 | COc1ccc(-c2nc3ccccc3n2CCC(C)C)cc1OC | inconclusive [inhibitor, full curve, poor fit]
21 | CC(C)(C)c1cc(NC(=O)c2ccco2)no1 | inactive
22 | Brc1ccc(CSc2nnc(-c3ccccn3)n2Cc2ccco2)cc1 | inactive

Row | Structure (SMILES) | Potency
23 | COC(=O)c1sccc1NC(=O)/C=C/c1ccc(Cl)cc1 | inconclusive [inhibitor, partial curve]
24 | Cc1cc(N=CC2=C(O)CCCC2=O)no1 | inconclusive [inhibitor, full curve, poor fit]
25 | CCCCOC(=O)CSC1=C(C#N)C(c2ccc3c(c2)OCO3)CC(=O)N1 (centres undefined) | inconclusive [inhibitor, full curve, poor fit]
26 | Cc1cccc(C(=O)NC2CC3CCC(C2)N3C)c1 (centres undefined) | inconclusive [inhibitor, partial curve]
27 | Cc1ccccc1CNc1nc(N(C)C)nc2c1cnn2C | inactive
28 | CCCOn1nnnc1-c1ccccc1 | inconclusive [inhibitor, partial curve]
29 | COc1cccc(CNC(=O)Cc2ccc(NC(=O)N3CCSc4ncccc43)cc2)c1OC | inactive
30 | CC1CN(S(=O)(=O)c2ccccc2)CC(C)O1 (centres undefined) | inconclusive [inhibitor, full curve, poor fit]
31 | CSc1ccc(S(=O)(=O)NCC(=O)OCC(=O)NCCc2ccccc2)cc1[N+](=O)[O-] | inconclusive [inhibitor, full curve, poor fit]
32 | CCCCC(C(=O)NC(C)(C)C)N(Cc1ccco1)C(=O)c1snc(C(N)=O)c1N (centres undefined) | inconclusive [inhibitor, single point]
33 | CCOC(=O)c1cnc(NCc2ccccc2)nc1C | inconclusive [inhibitor, single point]
34 | CCOC(=O)c1cc(S(=O)(=O)N2CC(C)CC(C)C2)cn1C (centres undefined) | inconclusive [inhibitor, full curve, poor fit]
35 | CC1CCCC(NC(=O)c2ccc(CNc3c(N4CCCC4)c(=O)c3=O)cc2)C1C (centres undefined) | inconclusive [inhibitor, full curve, poor fit]
36 | Cc1nn(-c2ccccc2)c(Cl)c1C(=O)NNC(=O)c1ccccc1O | inactive
37 | CCOc1ccc(C(=O)OCC(=O)NCc2ccco2)cc1OCC | inconclusive [inhibitor, partial curve, poor fit]
38 | Cc1ccc(-n2nc(C)c3c2OC(N)=C(C#N)C3c2ccoc2)cc1 (centres undefined) | inactive
39 | CC(C)C(c1nnnn1C1CCCC1)N1CCCCC1 (centres undefined) | inactive
40 | C=CCn1c(SC(C)C(=O)Nc2ccc(Cl)cn2)nnc1C1CC1 (centres undefined) | inconclusive [inhibitor, partial curve, poor fit]
41 | Cc1ccc(NC(=O)CSc2nnc(NC(=O)c3ccc(S(=O)(=O)N4CCOCC4)cc3)s2)cc1 | inconclusive [inhibitor, partial curve, poor fit]
42 | O=C(CCCl)Nc1ccc(S(=O)(=O)NCc2ccco2)cc1 | inconclusive [inhibitor, full curve]
43 | Cc1cc(NC(=O)Nc2cccc(C)c2C)no1 | inconclusive [inhibitor, full curve]
44 | CC(C)C[C@H](NC(=O)OC(C)(C)C)c1nnc(SCc2cccc(F)c2)o1 | inactive
